These are yes or no findings as the source states them, for the method shown. In cells and extracts the contact can be indirect. Some entries that bind do so weakly or less than the wild type. Tags and fused reporters may be left off the sequences shown. One block for each molecule: values may come before it.
What was measured:
[1] = biological target: T1, Flag-NLRP11^NACHT (human) (UniProt P59045); assay: co-IP; immobilised anti-Flag antibodies, lysates of transiently transfected HEK293 cells (Flag-NLRP11^NACHT with HA- or Myc-tagged partners); 50 mM HEPES pH 7.4, 10% glycerol, 2 mM EDTA, 1% NP-40, 180-800 mM NaCl; immunoblot for HA or Myc
T1 sequence: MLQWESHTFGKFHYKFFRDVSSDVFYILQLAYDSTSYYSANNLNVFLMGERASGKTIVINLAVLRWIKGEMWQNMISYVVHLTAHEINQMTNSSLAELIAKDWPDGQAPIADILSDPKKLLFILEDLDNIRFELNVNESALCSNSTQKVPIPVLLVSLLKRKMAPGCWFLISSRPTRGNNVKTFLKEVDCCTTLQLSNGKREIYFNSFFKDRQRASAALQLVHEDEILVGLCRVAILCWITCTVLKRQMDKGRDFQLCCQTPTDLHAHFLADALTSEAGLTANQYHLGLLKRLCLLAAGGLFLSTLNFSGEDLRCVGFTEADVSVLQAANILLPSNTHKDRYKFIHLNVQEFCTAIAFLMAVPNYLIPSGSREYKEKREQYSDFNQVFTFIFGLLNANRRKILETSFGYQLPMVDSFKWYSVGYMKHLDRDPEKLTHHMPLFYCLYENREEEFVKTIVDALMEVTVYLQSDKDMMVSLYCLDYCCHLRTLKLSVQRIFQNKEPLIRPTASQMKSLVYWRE

Amino acid sequences for entries named in this document (tags omitted). A change or cut given only in a name is not applied to a line headed by its entry. Residues count along the entry.
UniProt Q9ULZ3: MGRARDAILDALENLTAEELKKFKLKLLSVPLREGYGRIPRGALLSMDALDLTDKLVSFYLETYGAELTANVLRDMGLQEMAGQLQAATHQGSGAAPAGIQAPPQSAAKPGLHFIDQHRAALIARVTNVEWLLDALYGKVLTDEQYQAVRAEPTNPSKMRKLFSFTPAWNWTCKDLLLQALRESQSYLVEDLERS
Flag-ASC^PYD: residues 1-91 of Q9ULZ3
UniProt Q96P20: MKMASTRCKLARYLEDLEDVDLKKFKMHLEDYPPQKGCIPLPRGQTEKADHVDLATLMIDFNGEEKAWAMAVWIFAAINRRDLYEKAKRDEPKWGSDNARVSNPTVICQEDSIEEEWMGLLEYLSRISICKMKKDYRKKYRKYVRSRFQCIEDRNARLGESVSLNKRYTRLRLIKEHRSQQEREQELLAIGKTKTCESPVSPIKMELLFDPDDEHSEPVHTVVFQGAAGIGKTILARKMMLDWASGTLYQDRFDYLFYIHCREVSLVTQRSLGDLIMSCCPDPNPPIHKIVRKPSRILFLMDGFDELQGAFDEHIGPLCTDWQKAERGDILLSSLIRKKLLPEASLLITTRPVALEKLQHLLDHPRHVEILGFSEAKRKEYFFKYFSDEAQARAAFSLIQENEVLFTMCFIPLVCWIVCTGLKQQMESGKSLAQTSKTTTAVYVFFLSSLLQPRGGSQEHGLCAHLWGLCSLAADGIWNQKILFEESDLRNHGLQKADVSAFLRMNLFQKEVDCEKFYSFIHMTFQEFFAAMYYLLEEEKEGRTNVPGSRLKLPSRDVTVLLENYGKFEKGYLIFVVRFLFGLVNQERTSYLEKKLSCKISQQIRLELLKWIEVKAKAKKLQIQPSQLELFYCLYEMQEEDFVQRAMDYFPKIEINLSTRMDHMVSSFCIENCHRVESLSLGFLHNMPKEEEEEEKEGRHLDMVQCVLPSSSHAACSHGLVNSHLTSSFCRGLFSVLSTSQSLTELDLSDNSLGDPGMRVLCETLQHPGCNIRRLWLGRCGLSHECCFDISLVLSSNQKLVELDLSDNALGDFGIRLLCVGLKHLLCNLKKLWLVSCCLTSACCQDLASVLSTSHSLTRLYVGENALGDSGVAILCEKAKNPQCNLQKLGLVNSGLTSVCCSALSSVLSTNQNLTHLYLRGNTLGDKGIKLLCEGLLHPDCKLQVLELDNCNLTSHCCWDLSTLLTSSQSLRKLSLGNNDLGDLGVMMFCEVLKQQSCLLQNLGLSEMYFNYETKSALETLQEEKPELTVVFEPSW
UniProt Q9NPP4: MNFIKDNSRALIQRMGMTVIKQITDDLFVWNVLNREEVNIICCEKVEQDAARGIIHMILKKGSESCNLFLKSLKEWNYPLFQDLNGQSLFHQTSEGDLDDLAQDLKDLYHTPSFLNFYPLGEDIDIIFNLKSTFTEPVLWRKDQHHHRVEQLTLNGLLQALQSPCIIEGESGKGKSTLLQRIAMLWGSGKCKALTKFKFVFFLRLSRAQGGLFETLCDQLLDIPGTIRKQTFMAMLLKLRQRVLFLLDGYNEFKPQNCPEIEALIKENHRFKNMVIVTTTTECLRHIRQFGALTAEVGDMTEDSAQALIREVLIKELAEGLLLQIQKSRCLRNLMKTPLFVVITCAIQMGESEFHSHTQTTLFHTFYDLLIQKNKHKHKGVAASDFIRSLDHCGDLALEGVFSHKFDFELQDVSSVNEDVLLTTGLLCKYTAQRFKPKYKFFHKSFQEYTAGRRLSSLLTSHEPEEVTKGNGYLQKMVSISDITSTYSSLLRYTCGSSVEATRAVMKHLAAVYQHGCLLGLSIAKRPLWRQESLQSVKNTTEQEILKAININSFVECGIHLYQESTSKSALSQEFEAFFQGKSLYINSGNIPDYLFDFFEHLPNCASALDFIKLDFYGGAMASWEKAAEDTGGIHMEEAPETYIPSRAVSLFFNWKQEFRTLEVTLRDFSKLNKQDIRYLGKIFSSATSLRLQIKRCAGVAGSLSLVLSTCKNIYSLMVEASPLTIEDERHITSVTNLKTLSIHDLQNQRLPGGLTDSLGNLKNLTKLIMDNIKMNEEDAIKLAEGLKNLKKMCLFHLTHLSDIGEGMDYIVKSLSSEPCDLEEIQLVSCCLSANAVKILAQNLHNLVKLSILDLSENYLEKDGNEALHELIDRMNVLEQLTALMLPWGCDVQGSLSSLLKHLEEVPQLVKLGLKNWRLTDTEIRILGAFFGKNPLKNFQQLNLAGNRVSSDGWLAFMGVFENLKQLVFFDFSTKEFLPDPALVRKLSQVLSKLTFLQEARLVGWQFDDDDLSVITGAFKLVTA

[2] = biological target: T2, EGFP-NLRP11^LRR (human) (UniProt P59045); assay: co-IP; immobilised anti-EGFP antibodies, lysates of transiently transfected HEK293 cells (EGFP-NLRP11^LRR with Myc-tagged partners); 50 mM HEPES pH 7.4, 10% glycerol, 2 mM EDTA, 1% NP-40, 150 mM NaCl; immunoblot for Myc
T2 sequence: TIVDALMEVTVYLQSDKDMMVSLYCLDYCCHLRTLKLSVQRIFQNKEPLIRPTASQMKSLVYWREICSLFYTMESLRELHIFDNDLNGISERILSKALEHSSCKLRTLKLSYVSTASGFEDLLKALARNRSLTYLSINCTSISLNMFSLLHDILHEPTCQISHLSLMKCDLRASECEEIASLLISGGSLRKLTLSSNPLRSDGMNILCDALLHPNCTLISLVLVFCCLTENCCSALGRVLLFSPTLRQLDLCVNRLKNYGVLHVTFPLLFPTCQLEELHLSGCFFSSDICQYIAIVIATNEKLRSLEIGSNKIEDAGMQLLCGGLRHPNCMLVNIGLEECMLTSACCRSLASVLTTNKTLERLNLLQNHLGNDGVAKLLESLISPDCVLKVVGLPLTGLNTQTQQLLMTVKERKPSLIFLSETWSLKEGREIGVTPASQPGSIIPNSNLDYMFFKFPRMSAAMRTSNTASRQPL

[3] = biological target: T1, Flag-NLRP11^NACHT (human); assay: co-IP; immobilised anti-Flag antibodies, lysates of transiently transfected HEK293 cells, washed with increasing NaCl (200, 400, 600 and 800 mM)
[4] = biological target: T1, Flag-NLRP11^NACHT (human); assay: co-IP; immobilised anti-Flag antibodies, transiently transfected HEK293 cells lysed in RIPA buffer (10 mM Tris-HCl pH 8.0, 1 mM EDTA, 0.5 mM EGTA, 1% Triton X-100, 0.1% sodium deoxycholate, 0.1% SDS, 140 mM NaCl)
[5] = biological target: T3, HA-NLRP11^PYD (human) (UniProt P59045); assay: co-IP; immobilised anti-HA antibodies, lysates of transiently transfected HEK293 cells (PYD constructs); 50 mM HEPES pH 7.4, 10% glycerol, 2 mM EDTA, 1% NP-40, 100 mM NaCl; immunoblot for Myc
T3 sequence: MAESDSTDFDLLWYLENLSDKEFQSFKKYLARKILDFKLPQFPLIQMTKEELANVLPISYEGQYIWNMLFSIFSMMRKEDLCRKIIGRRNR

[6] = biological target: Flag-ASC^PYD (UniProt Q9ULZ3); assay: co-IP; immobilised anti-Flag antibodies, lysates of transiently transfected HEK293 cells (PYD constructs); 50 mM HEPES pH 7.4, 10% glycerol, 2 mM EDTA, 1% NP-40, 100 mM NaCl; immunoblot for HA
[7] = biological target: HA-NLRP3^NACHT (human) (UniProt Q96P20); assay: co-IP; immobilised anti-HA antibodies, lysates of transiently transfected HEK293 cells (NACHT constructs); 50 mM HEPES pH 7.4, 10% glycerol, 2 mM EDTA, 1% NP-40, 180-800 mM NaCl; immunoblot for Flag
[8] = biological target: ASC (endogenous, THP-1) (human (endogenous in THP-1)) (UniProt Q9ULZ3); assay: co-IP; immobilised anti-ASC antibodies, total cell lysates of NLRP11^KO or NLRP3^KO THP-1 cells restored with NLRP11-Flag or NLRP11^ΔPYD-Flag, primed (LPS or Pam3CSK4, 2 h) and activated with nigericin (5 uM, 10 min); immunoblot for Flag
[9] = biological target: NLRP3 (endogenous, THP-1) (human (endogenous in THP-1)) (UniProt Q96P20); assay: co-IP; immobilised anti-NLRP3 antibodies, total cell lysates of THP-1 cells (plain, NLRP11^KO or ASC^KD restored with NLRP11-Flag or NLRP11^ΔPYD-Flag) primed with LPS or Pam3CSK4 and activated with nigericin (5 uM, 10-45 min); 50 mM HEPES pH 7.4, 50-150 mM NaCl, 10% glycerol, 2 mM EDTA, 0.5% Triton X-100; 4 °C; immunoblot

Molecule: HA-NLRP3^NACHT (from UniProt Q96P20 220-389) (domain or fragment)
binding [3]: binds
binding [4]: binds

B1: HA-NLRP11^PYD (domain or fragment, UniProt P59045 1-91)
chain: MAESDSTDFDLLWYLENLSDKEFQSFKKYLARKILDFKLPQFPLIQMTKEELANVLPISYEGQYIWNMLFSIFSMMRKEDLCRKIIGRRNR
binding [6]: binds

B2: HA-NLRP12^NACHT (domain or fragment, UniProt P59046 212-528)
chain: TVVMQGAAGIGKSMLAHKVMLDWADGKLFQGRFDYLFYINCREMNQSATECSMQDLIFSCWPEPSAPLQELIRVPERLLFIIDGFDELKPSFHDPQGPWCLCWEEKRPTELLLNSLIRKKLLPELSLLITTRPTALEKLHRLLEHPRHVEILGFSEAERKEYFYKYFHNAEQAGQVFNYVRDNEPLFTMCFVPLVCWVVCTCLQQQLEGGGLLRQTSRTTTAVYMLYLLSLMQPKPGAPRLQPPPNQRGLCSLAADGLWNQKILFEEQDLRKHGLDGEDVSAFLNMNIFQKDINCERYYSFIHLSFQEFFAAMYYIL
binding [3]: binds
binding [1]: binds
binding [4]: binds

B3: Flag-NLRP11^NACHT (domain or fragment, UniProt P59045 105-624)
chain: MLQWESHTFGKFHYKFFRDVSSDVFYILQLAYDSTSYYSANNLNVFLMGERASGKTIVINLAVLRWIKGEMWQNMISYVVHLTAHEINQMTNSSLAELIAKDWPDGQAPIADILSDPKKLLFILEDLDNIRFELNVNESALCSNSTQKVPIPVLLVSLLKRKMAPGCWFLISSRPTRGNNVKTFLKEVDCCTTLQLSNGKREIYFNSFFKDRQRASAALQLVHEDEILVGLCRVAILCWITCTVLKRQMDKGRDFQLCCQTPTDLHAHFLADALTSEAGLTANQYHLGLLKRLCLLAAGGLFLSTLNFSGEDLRCVGFTEADVSVLQAANILLPSNTHKDRYKFIHLNVQEFCTAIAFLMAVPNYLIPSGSREYKEKREQYSDFNQVFTFIFGLLNANRRKILETSFGYQLPMVDSFKWYSVGYMKHLDRDPEKLTHHMPLFYCLYENREEEFVKTIVDALMEVTVYLQSDKDMMVSLYCLDYCCHLRTLKLSVQRIFQNKEPLIRPTASQMKSLVYWRE
binding [7]: binds

B4: HA-NOD1^NACHT (domain or fragment, UniProt Q9Y239 133-435)
chain: LRHHLGRDSKFVLCYAQKEELLLEEIYMDTIMELVGFSNESLGSLNSLACLLDHTTGILNEQGETIFILGDAGVGKSMLLQRLQSLWATGRLDAGVKFFFHFRCRMFSCFKESDRLCLQDLLFKHYCYPERDPEEVFAFLLRFPHVALFTFDGLDELHSDLDLSRVPDSSCPWEPAHPLVLLANLLSGKLLKGASKLLTARTGIEVPRQFLRKKVLLRGFSPSHLRAYARRMFPERALQDRLLSQLEANPNLCSLCSVPLFCWIIFRCFQHFRAAFEGSPQLPDCTMTLTDVFLLVTEVHLNR
binding [1]: binds

Second part, the molecule after the results:

binding [1]: binds
binding [2]: binds
Molecule: Myc-NLRP3 (from UniProt Q96P20 1-1036)

binding [5]: no binding
Molecule: Myc-NLRP3^PYD (from UniProt Q96P20 1-89) (domain or fragment)

binding [1]: binds
binding [2]: no binding
Molecule: Myc-NLRC4 (from UniProt Q9NPP4 1-1024)

binding [8]: no binding
binding [9]: no binding
B5: NLRP11^ΔPYD-Flag (domain or fragment, UniProt P59045 104-1033)
chain: FMLQWESHTFGKFHYKFFRDVSSDVFYILQLAYDSTSYYSANNLNVFLMGERASGKTIVINLAVLRWIKGEMWQNMISYVVHLTAHEINQMTNSSLAELIAKDWPDGQAPIADILSDPKKLLFILEDLDNIRFELNVNESALCSNSTQKVPIPVLLVSLLKRKMAPGCWFLISSRPTRGNNVKTFLKEVDCCTTLQLSNGKREIYFNSFFKDRQRASAALQLVHEDEILVGLCRVAILCWITCTVLKRQMDKGRDFQLCCQTPTDLHAHFLADALTSEAGLTANQYHLGLLKRLCLLAAGGLFLSTLNFSGEDLRCVGFTEADVSVLQAANILLPSNTHKDRYKFIHLNVQEFCTAIAFLMAVPNYLIPSGSREYKEKREQYSDFNQVFTFIFGLLNANRRKILETSFGYQLPMVDSFKWYSVGYMKHLDRDPEKLTHHMPLFYCLYENREEEFVKTIVDALMEVTVYLQSDKDMMVSLYCLDYCCHLRTLKLSVQRIFQNKEPLIRPTASQMKSLVYWREICSLFYTMESLRELHIFDNDLNGISERILSKALEHSSCKLRTLKLSYVSTASGFEDLLKALARNRSLTYLSINCTSISLNMFSLLHDILHEPTCQISHLSLMKCDLRASECEEIASLLISGGSLRKLTLSSNPLRSDGMNILCDALLHPNCTLISLVLVFCCLTENCCSALGRVLLFSPTLRQLDLCVNRLKNYGVLHVTFPLLFPTCQLEELHLSGCFFSSDICQYIAIVIATNEKLRSLEIGSNKIEDAGMQLLCGGLRHPNCMLVNIGLEECMLTSACCRSLASVLTTNKTLERLNLLQNHLGNDGVAKLLESLISPDCVLKVVGLPLTGLNTQTQQLLMTVKERKPSLIFLSETWSLKEGREIGVTPASQPGSIIPNSNLDYMFFKFPRMSAAMRTSNTASRQPL

binding [1]: no binding
binding [2]: no binding
B6: Myc-pyrin (protein, UniProt O15553 1-781)
chain: MAKTPSDHLLSTLEELVPYDFEKFKFKLQNTSVQKEHSRIPRSQIQRARPVKMATLLVTYYGEEYAVQLTLQVLRAINQRLLAEELHRAAIQEYSTQENGTDDSAASSSLGENKPRSLKTPDHPEGNEGNGPRPYGGGAASLRCSQPEAGRGLSRKPLSKRREKASEGLDAQGKPRTRSPALPGGRSPGPCRALEGGQAEVRLRRNASSAGRLQGLAGGAPGQKECRPFEVYLPSGKMRPRSLEVTISTGEKAPANPEILLTLEEKTAANLDSATEPRARPTPDGGASADLKEGPGNPEHSVTGRPPDTAASPRCHAQEGDPVDGTCVRDSCSFPEAVSGHPQASGSRSPGCPRCQDSHERKSPGSLSPQPLPQCKRHLKQVQLLFCEDHDEPICLICSLSQEHQGHRVRPIEEVALEHKKKIQKQLEHLKKLRKSGEEQRSYGEEKAVSFLKQTEALKQRVQRKLEQVYYFLEQQEHFFVASLEDVGQMVGQIRKAYDTRVSQDIALLDALIGELEAKECQSEWELLQDIGDILHRAKTVPVPEKWTTPQEIKQKIQLLHQKSEFVEKSTKYFSETLRSEMEMFNVPELIGAQAHAVNVILDAETAYPNLIFSDDLKSVRLGNKWERLPDGPQRFDSCIIVLGSPSFLSGRRYWEVEVGDKTAWILGACKTSISRKGNMTLSPENGYWVVIMMKENEYQASSVPPTRLLIKEPPKRVGIFVDYRVGSISFYNVTARSHIYTFASCSFSGPLQPIFSPGTRDGGKNTAPLTICPVGGQGPD
